Data: publication PMC4336329 (PLoS ONE, 2015)
The whole screen tested about 310,000 compounds, of which about 2,200 (0.71%) showed an effect of 50% or more. The effect is printed as a negative number. Some of the results follow.

These compounds were tested against human ether-à-go-go-related gene (hERG) potassium channel (human, UniProt Q12809) (assay: primary screen, population patch clamp on CHO cells stably expressing hERG).
Sequence of human ether-à-go-go-related gene (hERG) potassium channel (Q12809 whole entry, looked up): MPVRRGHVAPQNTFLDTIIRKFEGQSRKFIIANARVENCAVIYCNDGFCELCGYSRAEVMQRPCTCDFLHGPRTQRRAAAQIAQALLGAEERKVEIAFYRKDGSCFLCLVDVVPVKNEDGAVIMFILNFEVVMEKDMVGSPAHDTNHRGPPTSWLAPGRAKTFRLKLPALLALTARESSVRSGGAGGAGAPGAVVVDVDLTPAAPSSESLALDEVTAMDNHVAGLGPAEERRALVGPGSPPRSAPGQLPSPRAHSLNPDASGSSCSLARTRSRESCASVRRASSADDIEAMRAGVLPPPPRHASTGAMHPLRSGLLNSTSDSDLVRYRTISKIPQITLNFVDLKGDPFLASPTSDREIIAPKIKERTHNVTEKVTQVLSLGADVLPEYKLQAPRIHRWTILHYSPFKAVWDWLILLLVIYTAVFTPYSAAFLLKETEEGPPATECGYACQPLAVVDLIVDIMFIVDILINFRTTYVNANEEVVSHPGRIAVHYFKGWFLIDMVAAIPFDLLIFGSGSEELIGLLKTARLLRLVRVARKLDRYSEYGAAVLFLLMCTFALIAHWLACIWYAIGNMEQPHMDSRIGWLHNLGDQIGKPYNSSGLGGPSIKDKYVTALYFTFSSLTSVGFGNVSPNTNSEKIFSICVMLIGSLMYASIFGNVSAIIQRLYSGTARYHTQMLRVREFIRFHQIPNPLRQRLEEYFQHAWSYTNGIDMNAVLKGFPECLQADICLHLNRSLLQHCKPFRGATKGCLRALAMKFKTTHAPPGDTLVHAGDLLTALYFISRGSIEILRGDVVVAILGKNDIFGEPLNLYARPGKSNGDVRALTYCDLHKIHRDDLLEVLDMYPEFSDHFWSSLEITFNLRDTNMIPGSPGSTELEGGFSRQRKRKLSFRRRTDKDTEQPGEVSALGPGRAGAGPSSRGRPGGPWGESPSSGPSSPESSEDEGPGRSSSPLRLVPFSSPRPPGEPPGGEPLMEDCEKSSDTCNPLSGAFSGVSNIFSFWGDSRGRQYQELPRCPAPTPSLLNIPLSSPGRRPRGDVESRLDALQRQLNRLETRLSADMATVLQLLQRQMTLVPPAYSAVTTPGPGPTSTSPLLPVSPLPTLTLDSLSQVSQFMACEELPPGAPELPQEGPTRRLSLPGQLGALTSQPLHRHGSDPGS

| Structure (SMILES) | hERG current change (%, negative = inhibition) at 1uM |
| --- | --- |
| Oc1ccc(-c2n[nH]c(=S)n2-c2ccc3c(c2)OCCO3)c(O)c1 | 14.4% |
| O=C(CSc1nnc2scc(-c3ccccc3)n12)N1CCN(Cc2ccccc2)CC1 | -8.18% |
| CCOC(=O)Cn1c(=O)c2c(nc(N3CCCCC3)n2C)n(C)c1=O | -4.7% |
| Cc1ccc(S(=O)(=O)NP(=O)(Oc2ccccc2)Oc2ccccc2)cc1 | 0.88% |
| Cc1ccc(N(C)C(=O)C2CCCN2S(=O)(=O)c2ccc3c(c2)n(C)c(=O)c(=O)n3C)cc1 (stereo not drawn) | 9.6% |
| COc1ccc(C2=NOC(C(=O)N3CCN(C(=O)c4ccco4)CC3)C2)cc1OC (stereo not drawn) | 15.8% |
| CC(=O)c1cccc(NC(=O)CN(c2ccc(F)cc2)S(C)(=O)=O)c1 | -0.131% |
| COc1ccc(NC(=O)NNC(=O)C(C)Oc2ccc(C(C)C)cc2)c(OC)c1 (stereo not drawn) | 10.2% |
| CCOC(=O)c1c(C)nc(C)c(C(=O)OCC)c1-c1ccco1 | 15.5% |
| COc1ccc(C2C(C(=O)O)c3ccccc3C(=O)N2C)cc1Br (stereo not drawn) | 2.28% |
| CCNC(=S)N1CCc2cc(OC)c(OC)cc2C1COc1ccc(OC)cc1 (stereo not drawn) | 6.71% |
| Cc1cc(C)nc(Sc2ncnc3c2oc2ccccc23)n1 | 2.21% |
| CC(C)(C)c1cc[n+](/C(C(=S)Nc2ccccc2F)=C(/[O-])c2ccc3c(c2)OCCO3)cc1 | 14.6% |
| Cc1ccc(NC(=O)CC2S/C(=N/N=C/c3ccco3)NC2=O)cc1Cl (stereo not drawn) | 3.42% |
| Cc1[nH]c(C)c(S(=O)(=O)N(C)Cc2ccccc2)c1C(=O)N1CCCCC1 | -3.71% |
| CCOc1ccc(/C(O)=C2/C(=O)C(=O)N(c3cc(C)on3)C2c2ccc(C(=O)OC)cc2)cc1 (stereo not drawn) | 5.95% |
| C=CCNC(=O)c1ccc(OC2CCN(S(=O)(=O)N(C)C)CC2)cc1 | 5.26% |
| CC1CCC(NC(=O)c2cc(C3CC3)nn2-c2ccccc2)CC1 (stereo not drawn) | 1.19% |
| CNc1nc(N(C)C)nc(N(C)C)n1 | 9.51% |
| O=C1CS/C(=N/N=C/c2ccncc2)N1 | 11.1% |
| CCN1CCSc2ccc(C(=O)Nc3ccc(NC(C)=O)cc3)cc21 | 7.24% |
| CC(=O)c1ccc(Oc2cc(-c3ccccc3)nc(-c3ccccc3)n2)cc1 | 6.12% |
| COc1ccc(/C=C/C(=O)c2ccc(Cl)cc2)c(OC)c1 | 3.88% |

| Structure (SMILES) | hERG current change (%, negative = inhibition) at 1uM |
| --- | --- |
| CCOc1cc(CNCC(C)C)c(Cl)cc1OCC(=O)Nc1ccccc1 | 8.53% |
| COC(=O)c1ccccc1NC(=O)N1CCCC1 | 0.671% |
| COc1ccccc1Oc1nc(-c2cccnc2)nc2ccccc12 | 9.35% |
| Cc1c(NC(=O)CN2CCN(c3ccccc3)CC2)c(=O)n(-c2ccccc2)n1C | 8.26% |
| O=C(O)C1CCN(C(=O)c2scc3c2OCCO3)CC1 | 6.85% |
| Cc1ccccc1OCCC(=O)OCC(=O)NNC(=O)c1cccs1 | 5.06% |
| Cc1ncc(CN2CCN(Cc3ccccc3)C(CCO)C2)s1 (stereo not drawn) | 6.04% |
| CCn1cc(C(=O)OCC(=O)N2C(C)CCCC2C)c(=O)c2ccc(C)nc21 (stereo not drawn) | 11.6% |
| CCOc1ccc(NC(=O)CN(C)C(=O)c2cc(S(=O)(=O)N3CCCCC3)ccc2C)cc1OCC | 4.44% |
| COc1ccc(Cn2c(C)ccc2C)cc1 | 11% |
| O=C(Nc1ccc(NC(=O)c2cccs2)cc1)c1cccs1 | -6.9% |
| COc1ccc(CCNc2ncnc3c2nnn3Cc2ccccc2)cc1 | 14.7% |
| Cc1nn(-c2ccccc2)c2sc(C(=O)O)cc12 | -2.65% |
| CC1(C)Cc2cccc(OCC(=O)NCc3ccccc3)c2O1 | 11.9% |
| Cn1cc(Br)c(C(=O)NNC(=O)Nc2ccccc2C(F)(F)F)n1 | 12.1% |
| NC(=O)c1ccccc1Nc1nc2nc3ccccc3c(=O)n2cc1Br | 1.56% |
| CCOc1cc(/C=C2\C(=N)N3N=C(N4CCCCC4)SC3=NC2=O)ccc1OC(=O)c1ccco1 | 16.6% |
| CCCCCC(=O)Nc1ccc2oc(-c3cncc(Br)c3)nc2c1 | 18.1% |
| COc1cccc(CN2CCNC(=O)C2CC(=O)NCCOc2cccnc2)c1OC (stereo not drawn) | 12.9% |
| Cc1ccccc1NC(=O)c1cc2ccccn2n1 | 0.459% |
| COc1ccc(S(=O)(=O)N2c3ccccc3OCC2C)cc1 (stereo not drawn) | 18% |
| Cc1cc(NC(=O)CSc2nc3ccccc3[nH]2)no1 | 17.2% |
